{"source": "PubChem BioAssay AID686979", "about": "(National Center for Advancing Translational Sciences (NCATS), 2013)", "note": "Several values for one entry are separate records, joined by “and”; a condition that tells them apart may be missing. Equal values may be shown once. The whole screen tested about 420,000 compounds, of which about 50,000 (12%) were called active. Inconclusive means that the source gave no clear call. Such entries were picked first, then a sample of the others. The call rests on the fitted dose curve; in most records, active means well fitted inhibition curve with a large enough effect; inconclusive means small, poorly fitted or top-dose-only effect; inactive means flat fitted curve, though single readings scatter. No potency is given beside an inconclusive call; the fits are too rough. On the % scale 0 is the no-effect control and ±100 the full control effect; potency means the concentration at half of the fitted maximal effect; tags describe the fitted curve by direction and shape.", "data": [{"assay": "qHTS for Inhibitors of human tyrosyl-DNA phosphodiesterase 1 (TDP1): qHTS in cells in presence of CPT; further: nearly all actives have a fitted effect of over 55% in size", "settings": "chicken DT40 Tdp1-/-;hTDP1 cells + 20 nM CPT, ATP luminescence, 48 h; activity change, negative = growth inhibition: at 46.2 µM (top of the series) unless noted", "how_it_was_run": "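Cell growth measured by CellTiter-Glo luminescence after a minimum 48 h, 37 C compound exposure with 20 nM CPT in Tdp1-knockout DT40 cells stably expressing hTDP1, seeded 400/well; qHTS titration format.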", "values": [{"smiles": "O=C(/C=C/c1ccc(-c2ccccc2[N+](=O)[O-])o1)c1ccc(Br)cc1", "Potency": "inconclusive [inhibitor, single point]"}, {"smiles": "COc1cc2c(C(=O)N3CCN(c4ccccc4)CC3)c(C)oc2cc1Br", "Potency": "inconclusive [inhibitor, single point]"}, {"smiles": "CCn1cc(Br)c(C(=O)N(C)Cc2ccccc2)n1", "activity change, negative = growth inhibition": "inconclusive: -35% [inhibitor]"}, {"smiles": "CC1(C(=O)Nc2cccc(NS(C)(=O)=O)c2)Cc2c(-c3ccc(C(N)=O)cc3)ccnc2O1", "note": "(stereo not given)", "Potency": "inactive"}, {"smiles": "CCCCSc1nc2sc3c(c2c(=O)n1-c1ccccc1)CCN(C)C3", "Potency": "active: 9.2 µM"}, {"smiles": "O=C(Nc1cccc(C(F)(F)F)c1)N(Cc1ccc(Cl)cc1)CC(O)C(F)(F)F", "note": "(stereo not given)", "Potency": "inconclusive [inhibitor, single point]"}, {"smiles": "COc1ccc2c(c1)CC1c3c(cc4c(c3-2)OCO4)CC[N+]1(C)[O-]", "note": "(stereo not given)", "Potency": "inconclusive [inhibitor, single point]"}, {"smiles": "CCOC(=O)c1nnc(-c2ccccc2)nc1N1CCSCC1", "Potency": "inactive"}, {"smiles": "O=C(/C=C/c1cccs1)c1ccc(Br)cc1", "Potency": "inconclusive [inhibitor, single point]"}, {"smiles": "CC(OC(=O)c1ccc(Cl)nc1)C(=O)NC1(C#N)CCCCC1", "note": "(stereo not given)", "Potency": "inactive"}, {"smiles": "CC(NC1=CC(=O)c2cccnc2C1=O)C(O)c1ccccc1", "note": "(stereo not given)", "Potency": "active: 1.46 µM"}, {"smiles": "COc1cccc(-c2cnc(C(O)c3cc(C)ccc3C)[nH]2)c1", "note": "(stereo not given)", "Potency": "inconclusive [inhibitor, single point]"}, {"smiles": "CCOC(=O)c1cc(-c2ccc(Cl)cc2)nc2c1c(C)nn2CCC#N", "Potency": "inconclusive [inhibitor, partial curve]"}, {"smiles": "COc1ccccc1NS(=O)(=O)c1ccc(C(=O)N2CCCCCC2)cc1", "Potency": "active: 18.4 µM"}, {"smiles": "COc1ccc(Cl)cc1NC(=O)CN(C)C(=O)C12CC3CC(CC(Cl)(C3)C1)C2", "Potency": "inconclusive [inhibitor, single point]"}, {"smiles": "COc1ccc(C=C(C#N)C#N)c(CSc2ccccn2)c1", "Potency": "inconclusive [inhibitor, single point]"}, {"smiles": "COC(=O)c1ccc(-c2cc3onc(-c4ccccc4)c3c(=O)n2C)cc1", "Potency": "active: 23.1 µM"}, {"smiles": "Nc1ccc(C(=O)OCc2csc(-c3ccccc3)n2)cc1[N+](=O)[O-]", "Potency": "inconclusive [inhibitor, partial curve]"}, {"smiles": "CCC(C)NC(=O)c1[nH]c2cc(OC)ccc2c1Sc1ccc(C)cc1", "note": "(stereo not given)", "Potency": "inconclusive [inhibitor, single point]"}, {"smiles": "CCc1c(-c2cccc(OC)c2)ncn1Cc1cccc(-c2ccccc2)c1", "Potency": "active: 6.51 µM"}, {"smiles": "CCOC(=O)C1CCN(C(=O)c2cc3ccc4ccc(C)[nH]c4c3n2)CC1", "Potency": "active: 18.4 µM"}, {"smiles": "CC(=O)c1ccc(NC(=O)CSc2ccc(-c3sc(C)nc3C)nn2)cc1", "Potency": "active: 13 µM"}, {"smiles": "CCOc1ccc(NC(=O)CC2C(=O)N(c3cccc(C)c3)C(=O)N2Cc2ccco2)cc1", "note": "(stereo not given)", "Potency": "inconclusive [inhibitor, single point]"}, {"smiles": "COc1cccc(CN2CCN(CCCc3ccccc3)C(CCO)C2)c1OC", "note": "(stereo not given)", "Potency": "inactive"}, {"smiles": "C#CCOCCOCCOCCNc1nc(N2CCOCC2)nc(N2CCN(C(=O)[C@H](Cc3cc4ccccc4[nH]3)n3cc([C@@H](N)CC(C)C)nn3)CC2)n1", "Potency": "inconclusive [inhibitor, single point]"}, {"smiles": "COc1ccc2c(c1)-c1nc(-n3ncc(C(=O)NC[C@@H]4CCCN5CCCC[C@H]45)c3C)ncc1CC2", "Potency": "inconclusive [inhibitor, single point]"}, {"smiles": "CC(O)(c1ccc(F)c(F)c1)c1nc(/C=C/c2ccc(C(F)(F)F)cc2)cs1", "note": "(stereo not given)", "Potency": "inconclusive [inhibitor, single point]"}, {"smiles": "COc1ccc(NC(=O)CN(C)C(=O)c2ccc(NS(=O)(=O)c3ccc4[nH]c(=O)[nH]c4c3)cc2)cc1", "Potency": "inactive"}, {"smiles": "O=C(c1cccs1)N1CCCC(N2CCN(c3cccc(C(F)(F)F)c3)CC2)C1", "note": "(stereo not given)", "Potency": "inconclusive [inhibitor, single point]"}, {"smiles": "COc1ccccc1CC(=O)Nc1ccc(C(=O)N2CCCCC2)cc1", "Potency": "inactive"}, {"smiles": "C=C(C)Cn1c(C)cc(C)c(S(=O)(=O)c2ccccc2C)c1=O", "Potency": "inconclusive [inhibitor, single point]"}, {"smiles": "CCOC(=O)CCc1c(C)nc2c(c(C)nn2-c2ccccc2)c1C", "Potency": "inconclusive [inhibitor, single point]"}, {"smiles": "CC(=O)N1c2ccccc2C(=O)C1N1CCN(c2cc(Cl)ccc2C)CC1", "note": "(stereo not given)", "Potency": "inconclusive [inhibitor, single point]"}, {"smiles": "CCOc1ccc(N2C(=O)c3ccccc3NC2(C)CC)cc1", "note": "(stereo not given)", "Potency": "inactive"}, {"smiles": "COC(=O)c1c(C)[nH]c(C(=O)/C=C/c2ccccc2Cl)c1C", "Potency": "inconclusive [inhibitor, single point]"}, {"smiles": "CC1(C(=O)NCc2cccc3ccccc23)CCN1Cc1ccc2ccccc2c1", "note": "(stereo not given)", "Potency": "active: 18.4 µM"}, {"smiles": "CCn1nc(NC(=O)COC)c2cc3cc(C)ccc3nc21", "Potency": "inactive"}, {"smiles": "Cc1nc2ccc(C(=O)Nc3cccc([N+](=O)[O-])c3)cc2s1", "Potency": "inconclusive [inhibitor, single point]"}, {"smiles": "Cc1cc(C)c(S(=O)(=O)Nc2nnc(C(C)C)s2)c(C)c1", "Potency": "inactive"}, {"smiles": "COC(=O)c1ccc(CSc2nnc(-c3ccc4c(c3)OCO4)n2-c2ccccc2)o1", "Potency": "inconclusive [inhibitor, partial curve, poor fit]"}, {"smiles": "C[C@H]1CN=C(Nc2ccccc2)N1CCC1CCCCC1", "Potency": "active: 18.4 µM"}, {"smiles": "Cn1c(NCc2ccccc2)nc2cc(-c3cccc(C(F)(F)F)c3)sc2c1=O", "Potency": "inconclusive [inhibitor, single point]"}, {"smiles": "Cc1cccc(-n2c(SCC(=O)N3CCCC3)nc3n[nH]c(C)c3c2=N)c1", "Potency": "inconclusive [inhibitor, partial curve]"}, {"smiles": "COc1cccc(Nc2ncnc3onc(-c4ccccc4OC)c23)c1", "Potency": "inconclusive [inhibitor, single point]"}, {"smiles": "O=C(CCn1c(=O)[nH]c2ccsc2c1=O)N1CCN(c2ccc([N+](=O)[O-])cc2)CC1", "Potency": "active: 16.4 µM"}, {"smiles": "CN(C)NC(=S)NC1CCS(=O)(=O)C1", "note": "(stereo not given)", "Potency": "inactive"}, {"smiles": "CCC1CN(C(=O)Nc2ccccc2C(F)(F)F)c2ccccc2S1", "note": "(stereo not given)", "Potency": "inactive"}, {"smiles": "CC(C)(C)c1cc(N2CCOCC2)n2ncc(-c3ccccc3)c2n1", "Potency": "inconclusive [inhibitor, single point]"}, {"smiles": "N#Cc1nc(COc2cccc(Cl)c2)oc1NCc1ccco1", "Potency": "active: 20.6 µM"}, {"smiles": "CN1CCN(C(=O)c2ccc(Cl)c(S(=O)(=O)N3CCCCC3)c2)CC1", "Potency": "inactive"}, {"smiles": "O=C(CN(Cc1ccco1)C(=O)c1ccccc1)Nc1ccc(Cl)c(Cl)c1", "Potency": "inactive"}, {"smiles": "Cc1ccc2nc(CN3CCN(C(=O)Nc4cccc(C)c4C)CC3)oc2c1", "Potency": "inconclusive [inhibitor, single point]"}, {"smiles": "O=c1[nH]c2cc([N+](=O)[O-])cc(Cl)c2c2ccccc12", "Potency": "inconclusive [inhibitor, partial curve]"}, {"smiles": "Cc1ccc(CNC(=O)c2cc(S(=O)(=O)N3CCCCC3)cn2C)cc1", "Potency": "inconclusive [inhibitor, partial curve]"}, {"smiles": "COc1cc2c(C(=O)OCCN(C)C)c(CSc3ccccc3)n(C)c2cc1Br", "Potency": "inconclusive [inhibitor, single point]"}, {"smiles": "CCC1CN(C(=O)N2CCC(C(=O)N(C)Cc3ccccc3)CC2)c2ccccc2O1", "note": "(stereo not given)", "Potency": "inconclusive [inhibitor, single point]"}, {"smiles": "COc1ccc(C(=O)N2CCc3ccc(NC(=O)c4ccccn4)cc3C2)cc1F", "Potency": "active: 20.6 µM"}, {"smiles": "O=c1ccn(CCCBr)c(=O)[nH]1", "Potency": "inactive"}, {"smiles": "O=C1CCN(CCc2ccccc2)CCN1CCSc1ccc(Br)cc1", "Potency": "inconclusive [inhibitor, single point]"}, {"smiles": "COc1ccccc1C(NC(C)=O)c1cc(Cl)c2cccnc2c1O", "note": "(stereo not given)", "Potency": "active: 5.01 µM and active: 1.64 µM"}, {"smiles": "CCOC(=O)c1cc(-c2ccc(/C=C3/C(=O)N(c4ccc(C(=O)O)cc4)N=C3C)o2)ccc1Cl", "Potency": "inconclusive [inhibitor, single point]"}, {"smiles": "O=S(=O)(c1ccccc1)N1CCN(S(=O)(=O)c2ccccc2)c2ccccc21", "Potency": "inconclusive [inhibitor, partial curve]"}, {"smiles": "COc1ccc(Cc2nc(C(=O)Nc3ccc(F)cc3)cs2)cc1", "Potency": "inactive"}, {"smiles": "CCS(=O)(=O)c1ncc(N(Cc2cccc(F)c2)Cc2ccco2)c(C(=O)Nc2ccccc2Cl)n1", "Potency": "inconclusive [inhibitor, single point]"}, {"smiles": "Cc1nc2c(-c3ccccc3)c(C)[nH]n2c(=O)c1Cc1ccc(C(C)C)cc1", "Potency": "active: 2.59 µM"}, {"smiles": "O=C(c1ccc(F)cc1)N1CCN(c2cc(N3CCCCC3)c(F)cc2[N+](=O)[O-])CC1", "Potency": "inconclusive [inhibitor, single point]"}, {"smiles": "COc1ccccc1Cc1c(-c2ccco2)nc2cc(C)c(Br)c(C)n12", "Potency": "inconclusive [inhibitor, single point]"}, {"smiles": "CCOC(=O)c1[nH]c2ccccc2c1NC(=S)Nc1ccccc1C", "Potency": "inactive"}, {"smiles": "CCOc1ccc(CCNC(=O)C2CCN(c3nnc(-n4cccc4)s3)CC2)cc1OCC", "Potency": "inconclusive [inhibitor, single point]"}, {"smiles": "CC(NC(=O)c1ccc([N+](=O)[O-])o1)C12CC3CC(CC(C3)C1)C2", "note": "(stereo not given)", "Potency": "inconclusive [inhibitor, partial curve, poor fit]"}]}]}
